The values below come from US6706740B2, “Fungicidal heterocyclic aromatic amides and their compositions, methods of use and preparation” (Dow AgroSciences LLC, priority 1999, dated 2004).

Each structure is given as a SMILES string.

One experiment deals with Plasmopara viticola—PLASVI. Kind of experiment: whole plant or invertebrate. It is filed as in vivo. The conditions noted are these: 100 ppm, 24 hour protectant, grape; control of fungal infection vs untreated plants.
`COc1ccnc(C(=O)N[C@@H]2CC(C)(C)C[C@](C)(C(=O)N(C)CCc3ccccc3)C2)c1O` [Compound 263]: the “PLASVI in vivo 1 Day Protectant” value is reported as “− (<25% control of fungal infection)”.

The experiment is the same for the next values; noted with them: Plasmopara, 24 h, read-out: PLASVI in vivo 1 Day Protectant, 100 ppm, 24 hour protectant, grape; control of fungal infection vs untreated plants.
Take `CCCCC1(C)CCCC(NC(=O)c2nccc(OC)c2O)C1` (stereo not shown) [Compound 254]: the pest or weed control at 100 ppm was less than 25%.
For the molecule `COc1ccnc(C(=O)N[C@@H]2C[C@@H](O[Si](C)(C)C(C)(C)C)O[C@@H](C)[C@@H]2OC)c1O` [Compound 326], the pest or weed control at 100 ppm was less than 25%.
On to `COc1ccnc(C(=O)NC2CC(c3ccco3)CC(C)(C)C2)c1O` (stereo not shown) [Compound 258], for which the pest or weed control at 100 ppm is less than 25%.
Regarding `COCCCc1ccc2c(c1)OC(C)C(NC(=O)c1nccc(OC)c1O)C2=O` (stereo not shown) [Compound 322], the pest or weed control at 100 ppm was less than 25%.
The same measure, in the same setting: next, `Cc1ccc(CNC(=O)c2ncccc2O)cc1` [Compound 223]: 25 to 74%; `COc1cc(NC(=O)c2ncccc2O)cc(OC)c1` [Compound 216]: less than 25%.
For `CC1(C)CC(NC(=O)c2ncccc2O)CC(C)(C)C1=O` [Compound 205], the pest or weed control at 100 ppm was in the range of 25 to 74%.
On the same count and under the same terms, the result for `COc1cccc(CNC(=O)c2ncccc2O)c1` [Compound 225] reads less than 25%.
Take `COc1ccnc(C(=O)NC2CC(C)(C)CC(C)(COCC(Cl)CCl)C2)c1O` (stereo not shown) [Compound 257]: the pest or weed control at 100 ppm was in the range of 25 to 74%.
Still for that read-out and setting: next, `COc1ccnc(C(=O)NC2CCN(Cc3ccccc3)CC2)c1O` [Compound 305]: less than 25%; `COc1ccnc(C(=O)NC2CC(C)(C)CC(C)(C)C2)c1O` [Compound 250]: less than 25%; `COc1ccnc(C(=O)N[C@H]2CC[C@H]3C4CCC(CC4)[C@H]3C2=O)c1O` [Compound 292]: less than 25%.
`COc1ccccc1CNC(=O)c1ncccc1O` [Compound 224]: the pest or weed control at 100 ppm is less than 25%.
Consider `COc1ccnc(C(=O)NC2CCCCCCC2)c1O` [Compound 282], for which the pest or weed control at 100 ppm is less than 25%.
Turning to `COc1ccc(CNC(=O)c2ncccc2O)cc1` [Compound 226], the pest or weed control at 100 ppm was less than 25%.
As to `COc1ccnc(C(=O)N[C@H]2C(O)[C@@H]3CC[C@H]2[C@@H]2CCCC[C@@H]23)c1O` (stereo partly shown) [Compound 293], the pest or weed control at 100 ppm was less than 25%.

Still in this experiment, the particulars now being: Plasmopara, 24 h, read-out: PLASVI in vivo 1 Day Protectant, 100 ppm, grape, 24 hour protectant, % control of fungal infection vs untreated plants.
On to `COc1ccnc(C(=O)N[C@H]2COC(=O)[C@H](Cc3ccccc3)[C@@H](OC(=O)C(C)C)[C@H](C)OC2=O)c1OC(=O)C=C(C)C` [Compound 607], for which the pest or weed control at 100 ppm was less than 25%.
Regarding `COc1ccnc(C(=O)N[C@H]2COC(=O)[C@H](Cc3ccccc3)[C@@H](OC(=O)C(C)C)[C@H](C)OC2=O)c1O[Si](C)(C)C(C)(C)C` [Compound 720], the pest or weed control at 100 ppm is less than 25%.
As to `COc1ccc(C(=O)Oc2c(OC)ccnc2C(=O)N[C@H]2COC(=O)[C@H](Cc3ccccc3)[C@@H](OC(=O)C(C)C)[C@H](C)OC2=O)cc1` [Compound 634], the pest or weed control at 100 ppm was less than 25%.
Take `COc1ccnc(C(=O)Nc2ccc(NC(=O)c3cccc(C(F)(F)F)c3)cc2)c1OC(C)=O` [Compound 719]: the pest or weed control at 100 ppm is less than 25%.
Regarding `COc1ccnc(C(=O)N[C@H]2COC(=O)[C@H](Cc3ccccc3)[C@@H](OC(=O)C(C)C)[C@H](C)OC2=O)c1OS(C)(=O)=O` [Compound 721], the pest or weed control at 100 ppm is less than 25%.
On the same count and under the same terms, next, `COc1ccnc(C(=O)Nc2ccc(Oc3ccc(C(F)(F)F)cc3)cc2)c1OC(C)=O` [Compound 709]: less than 25%; `CCC(=O)Oc1c(OC)ccnc1C(=O)N[C@H]1COC(=O)[C@H](Cc2ccccc2)[C@@H](OC(=O)C(C)C)[C@H](C)OC1=O` [Compound 598]: less than 25%.
On to `COc1ccnc(C(=O)N[C@H]2COC(=O)[C@H](Cc3ccccc3)[C@@H](OC(=O)C(C)C)[C@H](C)OC2=O)c1OC(=O)OCc1ccccc1` [Compound 695], for which the pest or weed control at 100 ppm was less than 25%.
As to `COc1ccnc(C(=O)N[C@H]2COC(=O)[C@H](Cc3ccccc3)[C@@H](OC(=O)C(C)C)[C@H](C)OC2=O)c1OC(=O)CC(C)(C)C` [Compound 610], the pest or weed control at 100 ppm is less than 25%.
With `COc1ccnc(C(=O)N[C@H]2COC(=O)[C@H](Cc3ccccc3)[C@@H](OC(=O)C(C)C)[C@H](C)OC2=O)c1OC(=O)C1CCC1` [Compound 604], the pest or weed control at 100 ppm lay in the range of 25 to 74%.
In the case of `COc1ccnc(C(=O)N[C@H]2COC(=O)[C@H](Cc3ccccc3)[C@@H](OC(=O)C(C)C)[C@H](C)OC2=O)c1OC(=O)c1ccco1` [Compound 673], the pest or weed control at 100 ppm was 25 to 74%.
The same measure, in the same setting: the result for `COCCC(=O)Oc1c(OC)ccnc1C(=O)Nc1cccc(C(=O)Nc2ccc(C(F)(F)F)cc2)c1` [Compound 714] reads less than 25%.

Still in this experiment, the particulars now being: Plasmopara, 24 h, read-out: PLASVI in vivo 1 Day Protectant, 100 ppm, grape, 24 hour protectant; control of fungal infection vs untreated plants.
Take `COc1ccnc(C(=O)Nc2ccc(Oc3cccc(C)c3)cc2)c1O` [Compound 416]: the pest or weed control at 100 ppm was less than 25%.
Consider `COc1ccnc(C(=O)N[C@@H](CO)C(=O)O[C@@H](C)[C@H](OC(=O)C(C)C)[C@@H](Cc2ccccc2)C(=O)O)c1O` [Compound 341], for which the pest or weed control at 100 ppm is less than 25%.
Turning to `COc1ccnc(C(=O)N[C@H]2COC(=O)[C@H](CC3CCCC3)[C@@H](OC(=O)C(C)C)[C@H](C)OC2=O)c1O` [Compound 402], the pest or weed control at 100 ppm is 25 to 74%.
`COc1ccnc(C(=O)N[C@H]2COC(=O)[C@H](Cc3ccccc3)[C@@H](OC(=O)NC(C)C)[C@H](C)OC2=O)c1O` [Compound 399]: the pest or weed control at 100 ppm is less than 25%.
With `COc1ccnc(C(=O)N[C@H]2COC(=O)[C@H](Cc3ccccc3)[C@@H](OC(=O)NC(C)(C)C)[C@H](C)OC2=O)c1O` [Compound 400], the pest or weed control at 100 ppm is 25 to 74%.
Still for that read-out and setting: next, `COc1ccnc(C(=O)N[C@@H](COCc2ccccc2)C(=O)O[C@@H](C)[C@H](OC(=O)C(C)C)[C@@H](Cc2ccccc2)C(=O)OCc2ccccc2)c1O` [Compound 342]: less than 25%.
On to `COc1ccnc(C(=O)Nc2cccc(Oc3ccccc3C)c2)c1O` [Compound 412], for which the pest or weed control at 100 ppm is less than 25%.
With `COc1ccnc(C(=O)N[C@H]2COC(=O)[C@H](Cc3ccccc3)[C@@H](OC(=O)C3CCCCC3)[C@H](C)OC2=O)c1O` [Compound 392], the pest or weed control at 100 ppm was less than 25%.
Consider `COc1ccnc(C(=O)NC2CC(=O)OCC(C)COC2=O)c1O` (stereo not shown) [Compound 378], for which the pest or weed control at 100 ppm is less than 25%.
Take `COc1ccnc(C(=O)Nc2ccc(Oc3ccc(Cl)cc3)cc2)c1O` [Compound 443]: the pest or weed control at 100 ppm was 25 to 74%.
Same read-out and setting: next, `COc1ccnc(C(=O)Nc2ccc(C(=O)Oc3ccc(C(F)(F)F)cc3)cc2)c1O` [Compound 452]: less than 25%.
As for `COc1ccnc(C(=O)Nc2cccc(Oc3ccc(C(F)(F)F)cc3)c2)c1O` [Compound 423], the pest or weed control at 100 ppm is less than 25%.
On to `COc1ccnc(C(=O)Nc2ccccc2Oc2ccc(Cl)cc2)c1O` [Compound 438], for which the pest or weed control at 100 ppm was less than 25%.
Same read-out and setting: next, `COc1ccnc(C(=O)NC(COC(=O)C(Cc2ccccc2)C(C)O[Si](C)(C)C(C)(C)C)C(=O)OC(C)C)c1O` (stereo not shown) [Compound 357]: 25 to 74%.

Staying with this experiment, now noted: Plasmopara, 24 h, read-out: PLASVI in vivo 1 Day Protectant, grape plants, 100 ppm, 24 hour protectant; control of fungal infection vs untreated plants.
On to `CC(C)C(=O)O[C@H]1[C@H](C)OC(=O)[C@@H](NC(=O)c2nc3ccccc3cc2O)COC(=O)[C@@H]1Cc1ccccc1` [Compound 562], for which the pest or weed control at 100 ppm is less than 25%.
Take `COc1nc(O)c(C(=O)N[C@H]2COC(=O)[C@H](Cc3ccccc3)[C@@H](OC(=O)C(C)C)[C@H](C)OC2=O)nc1Cl` [Compound 537]: the pest or weed control at 100 ppm lay within 25 to 74%.
Take `Cc1ccc(C(=O)NC2CC(C)(C)CC(C)(C)C2)c(O)n1` [Compound 524]: the pest or weed control at 100 ppm is less than 25%.
Same read-out and setting: next, `CC(C)C(=O)O[C@H]1[C@H](C)OC(=O)[C@@H](NC(=O)c2cc(O)cnc2O)COC(=O)[C@@H]1Cc1ccccc1` [Compound 527]: 25 to 74%; `COc1ccnc(C(=O)NC2CC(C)(C)C=CC=C2C)c1OC(C)=O` (stereo not shown) [Compound 579]: 25 to 74%.
Consider `O=C(NCc1ccccn1)c1nc(Br)ccc1O` [Compound 483], for which the pest or weed control at 100 ppm is less than 25%.
On the same count and under the same terms, next, `COc1ccc(C(C)NC(=O)c2nc(Br)ccc2O)cc1` (stereo not shown) [Compound 486]: less than 25%.
For `Cc1cc(C)c(C(=O)N[C@H]2COC(=O)[C@H](Cc3ccccc3)[C@@H](OC(=O)C(C)C)[C@H](C)OC2=O)c(O)n1` [Compound 529], the pest or weed control at 100 ppm is less than 25%.
As to `COc1ccnc(C(=O)Nc2ccc(Oc3ccc(C(F)(F)F)cc3)nc2)c1O` [Compound 472], the pest or weed control at 100 ppm is less than 25%.
For the molecule `COc1ccnc(C(=O)NC2CC(C)(C)CC(C)(C#N)C2)c1OC(C)=O` (stereo not shown) [Compound 574], the pest or weed control at 100 ppm is less than 25%.
Regarding `O=C(Nc1cccc(Oc2ccc(C(F)(F)F)cc2)c1)c1nc(Br)ccc1O` [Compound 496], the pest or weed control at 100 ppm was less than 25%.
For `CCCCCc1ccc(C(C)NC(=O)c2nc(Br)ccc2O)cc1` (stereo not shown) [Compound 489], the pest or weed control at 100 ppm is less than 25%.
As to `COC(=O)C(COC(=O)C(COC(=O)C(C)C)Cc1ccccc1)NC(=O)c1nccc(OC)c1OC(C)=O` (stereo not shown) [Compound 587], the pest or weed control at 100 ppm is less than 25%.
Consider `CC1(C)CC(NC(=O)c2cncnc2O)CC(C)(C)C1` [Compound 539], for which the pest or weed control at 100 ppm was less than 25%.
For `O=C(NCCc1ccc(Cl)cc1)c1cccnc1O` [Compound 518], the pest or weed control at 100 ppm lay in the range of 25 to 74%.
On to `CC(C)(C)CNC(=O)c1cccnc1O` [Compound 514], for which the pest or weed control at 100 ppm is less than 25%.
For `CC(C)C(=O)O[C@H]1[C@H](C)OC(=O)[C@@H](NC(=O)c2cnn(C)c2O)COC(=O)[C@@H]1Cc1ccccc1` [Compound 556], the pest or weed control at 100 ppm is less than 25%.
Same read-out and setting: the result for `CC(NC(=O)c1nc(Br)ccc1O)c1ccc(Cl)cc1` (stereo not shown) [Compound 487] reads less than 25%.
